Source: PubChem BioAssay AID1845201 (Molecular Pharmacology Branch, DTP, NCI, 2023)
Not every entry of the source has a single result; some have several. This is not the full list of results. There may be further records. Results that share an entry repeat one measurement across runs, samples, wells, individuals or studies. Brackets with × stand for listed records that agree.

Test system: COR L88 complex tumor spheroid viability
Experiment: Anticancer human tumor COR L88 cell line growth inhibition;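 note: compound exposure lasted 7 days before viability readout; percent of DMSO vehicle-treated spheroids = 100%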
Settings: compound alone 0.003 µM; stronger effect = lower value
Source text: Multicellular complex tumor spheroid response to DNA repair inhibitors in combination with DNA-damaging drugs
This study explores the anticancer activities of DNA-damaging drugs and inhibitors of DNA damage repair, both as single agents and in combinations. Complex tumor spheroids comprised of malignant cells, endothelial cells and mesenchymal stem cells served as an in vitro model for human solid tumors. This model system incorporates physiologically relevant features and patient-derived or established malignant cell lines with clinically relevant genetic alterations from many tumor types. Twenty-six patient-derived or established malignant cell lines were evaluated representing sarcoma, melanoma, small cell lung cancer (SCLC), non-small cell lung cancer (NSCLC), as well as bladder, ovarian and pancreatic cancers. The concentration ranges selected for each drug and investigational agent were based upon clinically achievable concentrations if the clinical Cmax of the agent was known.
Compounds. […] If the clinical Cmax for an agent had not been determined, the highest concentration tested was 10 microM. […]

**Q.** For CC[C@@]1(O)C(=O)OCc2c1cc1n(c2=O)Cc2cc3c(CN(C)C)c(O)ccc3nc2-1, which viability, T/C is on record?
**A.** The viability, T/C was 91.2, 92.7, 99.1, 101 (2×), 84.9, 103 (2×), 113, 96.4%.
